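Grown in 96-well plates, cells were treated for 48 hours with each compound at five concentrations. Insufficient inhibition: endpoint recorded as highest concentration tested. GI50 marks 50% less growth.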 Certain results were filed several times, with different values. This list holds those alone. There may be further records. For part of these data: A record mostly stands for its own series of concentrations, which the source does not state; a value can be the end of its range. For part of these data: Results that share an entry repeat one measurement across runs, samples, wells, individuals or studies. Marks in square brackets tell the records apart. The letters are not those of the source and start again with each entry.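 TGI: total growth inhibition.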
Tests used:
Experiment in all cases: NCI anticancer screen, dose series, 48 h
[1] = tested on: ACHN renal
[2] = tested on: RXF 393 renal
[3] = tested on: A498 renal
[4] = tested on: RPMI-8226 leukemia
[5] = tested on: SF-295 CNS
[6] = tested on: NCI-H23 lung
[7] = tested on: MDA-MB-435
[8] = tested on: OVCAR-8 ovarian
[9] = tested on: LOX IMVI melanoma
[10] = tested on: HOP-92 NSCLC
[11] = tested on: DU-145 prostate
[12] = tested on: MOLT-4 leukemia
[13] = tested on: HCT-15 colon
[14] = tested on: EKVX NSCLC
[15] = tested on: UACC-257 melanoma
[16] = tested on: SK-MEL-2 melanoma
[17] = tested on: OVCAR-3 ovarian
[18] = tested on: HOP-62 NSCLC
[19] = tested on: HCC-2998 colon
[20] = tested on: COLO 205 colon
[21] = tested on: NCI-H226 lung
[22] = tested on: M14 melanoma
[23] = tested on: PC-3 prostate
[24] = tested on: MDA-MB-231 breast
[25] = tested on: SK-OV-3 ovarian
[26] = tested on: SF-268 CNS
[27] = tested on: NCI-H460 lung
[28] = tested on: DLD-1 colon

Cc1cnc(NC(=O)Nc2cc(Br)c(C)cc2OC[C@@H]2CNCCO2)cn1
TGI [1]: > 10 µM [sample A, 1 test] and 741 nM [sample B, mean of 2 tests]
TGI [2]: 7.4 µM [sample A, 1 test] and 591 nM [sample B, mean of 2 tests]
TGI [3]: 6.44 µM [sample A, 1 test] and 522 nM [sample B, mean of 2 tests]

COc1cccc(-c2cc(=O)c3cc(OC)ccc3[nH]2)c1
TGI [4]: 3.89 µM and 165 nM
TGI [5]: 462 nM and 41.7 µM
TGI [6]: 1.07 µM and > 100 µM
GI50 [7]: 128 nM and 39.8 µM
TGI [7]: 736 nM and > 100 µM
TGI [8]: 1.84 µM and > 100 µM
TGI [9]: 2.99 µM and 44.4 µM
TGI [10]: 5.56 µM and > 100 µM
TGI [11]: 7.98 µM and > 100 µM
TGI [12]: 7.79 µM and 245 nM
TGI [13]: 2.07 µM and > 100 µM

CN[C@H]1C=C[C@@H]2/C=C(C)/C=C/[C@@H](C)[C@H]([C@H](C)[C@H](O)[C@@H](C)NC(C)=O)OC(=O)/C=C/C=C(C)\C=C\[C@]2(C)C1
GI50 [14]: 49.8 nM and 1.78 µM
GI50 [15]: 71.5 nM and 4.9 nM
TGI [5]: 37.1 nM and 7.67 µM
GI50 [16]: 44.5 nM and 5.01 µM
GI50 [11]: 228 nM and 18.3 nM
GI50 [17]: 3.58 µM and 47.3 nM

CC(=O)OCC1OC(n2c(-c3ccc(Cl)cc3)ccc(C#N)c2=S)C(OC(C)=O)C(OC(C)=O)C1OC(C)=O (stereo unspecified)
GI50 [18]: 8.77 µM [sample A, mean of 2 tests] and > 100 µM [sample B, 1 test]

FC(F)c1nc2ccccc2n1-c1nc(N2CCOCC2)nc(N2CCOCC2)n1
TGI [6]: 8.92 µM [sample A, mean of 2 tests] and > 100 µM [sample B, mean of 2 tests]
TGI [7]: 3.85 µM [sample A, mean of 2 tests] and > 100 µM [sample B, mean of 2 tests]
TGI [19]: 5.79 µM [sample A, mean of 2 tests] and > 100 µM [sample B, mean of 2 tests]
TGI [20]: 2.65 µM [sample A, mean of 2 tests] and > 100 µM [sample B, mean of 2 tests]
TGI [21]: 3.38 µM [sample A, mean of 2 tests] and > 100 µM [sample B, 1 test]
TGI [22]: 5.62 µM [sample A, mean of 2 tests] and > 100 µM [sample B, mean of 2 tests]
TGI [23]: 2.41 µM [sample A, mean of 2 tests] and > 100 µM [sample B, mean of 2 tests]
TGI [9]: 3.19 µM [sample A, mean of 2 tests] and > 100 µM [sample B, mean of 2 tests]
TGI [24]: 7.34 µM [sample A, mean of 2 tests] and > 89.9 µM [sample B, mean of 2 tests]

COc1cc2c(c(OC)c1OC)-c1ccc(SC)c(=O)cc1[C@@H](NCc1ccc(C#N)cc1)CC2
TGI [25]: 21.7 nM and 857 nM
TGI [26]: 59.4 nM and > 100 µM
TGI [8]: 21.8 nM and > 100 µM
TGI [27]: 33.7 nM and 14.2 µM
TGI [3]: 63.8 nM and 44.8 µM
TGI [28]: 294 nM and > 100 µM

From PubChem BioAssay (NCI)
